Laboratory results: paper PMC4336329 (PLoS ONE, 2015)
The campaign covered roughly 310,000 compounds. About 2,200 (0.71%) showed an effect of 50% or more. Effects have a minus sign here. The list shows a part of the results.

Biological target: human ether-à-go-go-related gene (hERG) potassium channel (human, UniProt Q12809)
Assay: primary screen, population patch clamp on CHO cells stably expressing hERG

Chain of human ether-à-go-go-related gene (hERG) potassium channel (Q12809 whole entry, looked up): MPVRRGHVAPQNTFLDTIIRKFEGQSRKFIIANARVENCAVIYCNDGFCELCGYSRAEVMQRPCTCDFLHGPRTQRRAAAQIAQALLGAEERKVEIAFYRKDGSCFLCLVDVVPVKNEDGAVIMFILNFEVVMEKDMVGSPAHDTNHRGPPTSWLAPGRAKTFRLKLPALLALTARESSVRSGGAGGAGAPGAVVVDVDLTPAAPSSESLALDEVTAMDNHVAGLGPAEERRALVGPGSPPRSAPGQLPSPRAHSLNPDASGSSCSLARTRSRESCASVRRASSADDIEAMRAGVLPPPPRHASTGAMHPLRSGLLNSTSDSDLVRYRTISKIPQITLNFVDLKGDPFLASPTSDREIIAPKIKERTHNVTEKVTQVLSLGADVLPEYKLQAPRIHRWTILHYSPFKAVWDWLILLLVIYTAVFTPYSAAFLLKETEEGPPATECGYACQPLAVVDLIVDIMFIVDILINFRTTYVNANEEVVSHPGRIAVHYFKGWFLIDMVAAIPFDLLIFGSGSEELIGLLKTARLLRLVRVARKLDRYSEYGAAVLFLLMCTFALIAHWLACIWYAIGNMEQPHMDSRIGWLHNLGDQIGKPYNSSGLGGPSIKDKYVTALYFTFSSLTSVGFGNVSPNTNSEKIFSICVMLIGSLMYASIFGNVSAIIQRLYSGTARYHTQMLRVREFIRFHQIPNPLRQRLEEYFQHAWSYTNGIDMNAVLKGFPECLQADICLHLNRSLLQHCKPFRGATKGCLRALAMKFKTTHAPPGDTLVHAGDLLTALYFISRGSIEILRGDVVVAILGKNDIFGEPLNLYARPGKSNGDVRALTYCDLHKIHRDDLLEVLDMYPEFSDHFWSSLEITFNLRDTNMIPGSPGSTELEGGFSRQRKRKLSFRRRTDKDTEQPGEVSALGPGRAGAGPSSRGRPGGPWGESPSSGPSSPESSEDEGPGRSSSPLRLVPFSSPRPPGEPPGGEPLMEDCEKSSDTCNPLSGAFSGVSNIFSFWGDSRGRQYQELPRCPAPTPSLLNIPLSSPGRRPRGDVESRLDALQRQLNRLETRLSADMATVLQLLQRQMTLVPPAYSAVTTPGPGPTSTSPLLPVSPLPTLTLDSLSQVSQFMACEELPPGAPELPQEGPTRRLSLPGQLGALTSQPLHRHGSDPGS

| SMILES | hERG current change (%, negative = inhibition) at 1uM |
| --- | --- |
| CCCCN(CC)Cc1ccc(CNC(=O)Nc2ccccc2)o1 | -2.8% |
| COC(=O)c1cc(NS(=O)(=O)c2ccc(N3CCOCC3)c([N+](=O)[O-])c2)cc(C(=O)OC)c1 | 9.53% |
| CCN(CC)C(=O)NC1CC(=O)N(c2ccc(OC)cc2)C1 (stereo not drawn) | 16.7% |
| COc1cccc(NC(=O)Cc2ccc(C)cc2)c1 | 7.4% |
| O=C(CN(CCCN1CCOCC1)C(=O)Cn1nnc(-c2ccc(F)cc2)n1)NC1CCCCC1 | -1.74% |
| O=C(O)c1ccc(N/N=C/c2ccc(-c3ccc(Cl)cc3Cl)o2)cc1 | 11.6% |
| Cc1ccc(C)c(S(=O)(=O)Nc2ccc(C(=O)NCCCN3CCOCC3)cc2)c1 | 8.06% |
| CCCN(CCC)C(=O)C1CC(=O)OC12CCCCC2 (stereo not drawn) | 6.38% |
| CCOC(=O)C1=C(c2ccccc2)NC(=S)NC1C (stereo not drawn) | 9.21% |
| COc1cc(N)ccc1NC(=O)c1cc2ccccc2o1 | 8.77% |
| CCc1ccc2c(CC(=O)NNC(=O)c3ccncc3)coc2c1 | 11.6% |
| CNC(=O)CSc1cn(CC(=O)N(C(C)C)C(C)C)c2ccccc12 | 9.71% |
| COC(=O)[C@@H](NC(=O)Nc1ccc2c(c1)OCCO2)C(C)C | 6.37% |
| Cc1ccc(-c2cc(C(=O)NCCCN3CCCC3)c3ccccc3n2)cc1C | -2.04% |
| CNC(=O)N(C)c1nnc(C(C)(C)C)s1 | 11.2% |
| COc1ccc(CCNC(=O)C(=O)NCC2OCCN2S(=O)(=O)c2ccc(C)cc2)cc1 (stereo not drawn) | 7.8% |
| CC(C)n1c(N2CCN(C(=O)Nc3ccc(F)cc3F)CC2)nc2ccccc21 | -8.78% |
| O=C(COc1ccc2c(c1)CCC2)Nc1ccccn1 | 1.17% |
| Cc1ccc2[nH]c(O)c(N=NC(=O)C3CC3c3ccccc3)c2c1Br (stereo not drawn) | -5.29% |

| SMILES | hERG current change (%, negative = inhibition) at 1uM |
| --- | --- |
| COc1ccc2c(C(=O)CN(C)C3CCCCC3)c[nH]c2c1 | 15.5% |
| CCOC(=O)CN1C(=O)N[C@@H](CCc2ccccc2)[C@H](C(C)=O)[C@H]1C | 8.86% |
| Cc1cc(NC(=O)CSc2nnc(C3CC3)n2-c2ccccc2)no1 | 1.75% |
| COc1cccc(C=Nc2ccc3c(c2)OCCO3)c1O | 13.3% |
| CCOc1ccc(S(=O)(=O)N2CCN(Cc3ccccc3)CC2)c2cccnc12 | -5.92% |
| CSC1=NSC2=NC(=O)/C(=C\c3cccs3)C(=N)N12 | 11.7% |
| Nc1nc(Br)c2ccccc2c1-c1ccccc1 | 9.58% |
| O=C(Nc1ccccc1)c1ccccc1NC(=O)c1ccccc1[N+](=O)[O-] | 11% |
| CCCOc1ccccc1C1CC(=O)NC(C)=C1C(=O)OCC(C)C (stereo not drawn) | -1.64% |
| Cc1ccc(-c2ccc(SCC(=O)NC3CCCCC3)nn2)cc1 | 7.43% |
| COc1ccc(N2CCCn3c2nc2c3c(=O)n(CCN3CCOCC3)c(=O)n2C)cc1 | 2.51% |
| CC(=O)Nc1cccc(NC(=S)Nc2cccc3ccccc23)c1 | 12.7% |
| O=C(c1ccc(C(F)(F)F)cc1)C1CCCN(C(=O)CCn2cncn2)C1 (stereo not drawn) | -12% |
| CC1CN(c2ccc([N+](=O)[O-])cc2F)CCN1C(=O)c1ccco1 (stereo not drawn) | -40.2% |
| Cc1cc(C)n(CC(=O)NC2CCCc3c2cnn3-c2ccccc2F)n1 (stereo not drawn) | 7.86% |
| CCC(=O)N1CCN(C(=O)c2ccccc2)CC1 | 11.8% |
| COc1ccccc1OCC(=O)Nc1cc(Cl)ccc1Oc1ccccc1 | 2.43% |
| O=C(CNCC1CCCO1)Nc1ccccc1N1CCCCCC1.O=C(O)C(=O)O (stereo not drawn) | 13% |
| CC(C)(C)OC(=O)CC[C@@H](C(=O)NCCCCCCCCCCC(=O)N1CCN(C(=O)OC(C)(C)C)CC1)n1cc(CCCCCNC(=O)OC(C)(C)C)nn1 | 4.64% |

| SMILES | hERG current change (%, negative = inhibition) at 1uM |
| --- | --- |
| CSCCC(NS(=O)(=O)c1ccc2c(c1)c(=O)n(C)c(=O)n2C)C(=O)NC1CCN(Cc2ccccc2)CC1 (stereo not drawn) | 18.2% |
| CC(=O)Nc1ccc(NC(=O)c2ccc(CSc3ccccc3)o2)cc1 | 6.49% |
| O=C(O)Cn1cc(/C=C/[N+](=O)[O-])c2ccccc21 | 4.59% |
| CC(=O)c1c(O)cc(=O)n(-c2ccccc2)c1-c1ccc(Cl)cc1 | 15.4% |
| CC(=O)Nc1ccc(/C(C)=N/Nc2nc(Nc3ccccc3)nc(N3CCOCC3)n2)cc1 | 11.4% |
| CCCc1cc(=O)[nH]c(SCC(=O)N2CCc3ccccc3C2)n1 | 10.4% |
| Cc1noc(C)c1S(=O)(=O)N1CCC(C(=O)Nc2ccc(Br)cc2)CC1 | 11.1% |
| COc1ccc(CN2C(=O)CN=C2Nc2cccc(C)c2C)cc1.Cl | -6.02% |
| COC(=O)Cc1cc(=O)n2[nH]c(C(F)(F)F)nc2n1 | 5.48% |
| COc1ccc(NC(=O)Cn2cc(C(=O)c3ccco3)c3ccccc32)cc1 | 2.53% |
| Cc1ccc2nc(-c3cccc(Br)c3)cc(C(=O)Nn3cnnc3)c2c1 | 9.54% |
| Cc1cc(C)n(CCNc2nc3nonc3nc2N2CCCCC2)n1 | 6.4% |
| CC(C)COC(=O)CCn1[nH]c(=O)c2ccccc2c1=O | 5.67% |
| O=C(CSCc1ccc(Cl)cc1)N/N=C/c1ccco1 | 11.7% |
| Cc1ccc2cc(C#N)c(NCCNC(=O)C3CC3)nc2c1C | 9.04% |
| O=C(c1ccc(-c2ccccc2)cc1)C1CCCN(C(=O)c2cncs2)C1 (stereo not drawn) | 3.61% |
| CCc1nc(SCC(=O)NCCc2ccccc2)n[nH]1 | 1.78% |
| O=C(CSc1ccc2nnc(-c3ccccn3)n2n1)NCc1ccc2c(c1)OCO2 | -65.8% |
| CCCCC(=O)NCCc1ccc(OC)cc1 | 11.6% |
